About 14,000 (4.5%) of roughly 310,000 compounds showed an effect of 50% or more. Effects have a minus sign here. Some of the results follow.
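Also: peak tail current of the secondary pulse compared with the same well before compound.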

Chain of human ether-à-go-go-related gene (hERG) potassium channel (Q12809 whole entry, looked up): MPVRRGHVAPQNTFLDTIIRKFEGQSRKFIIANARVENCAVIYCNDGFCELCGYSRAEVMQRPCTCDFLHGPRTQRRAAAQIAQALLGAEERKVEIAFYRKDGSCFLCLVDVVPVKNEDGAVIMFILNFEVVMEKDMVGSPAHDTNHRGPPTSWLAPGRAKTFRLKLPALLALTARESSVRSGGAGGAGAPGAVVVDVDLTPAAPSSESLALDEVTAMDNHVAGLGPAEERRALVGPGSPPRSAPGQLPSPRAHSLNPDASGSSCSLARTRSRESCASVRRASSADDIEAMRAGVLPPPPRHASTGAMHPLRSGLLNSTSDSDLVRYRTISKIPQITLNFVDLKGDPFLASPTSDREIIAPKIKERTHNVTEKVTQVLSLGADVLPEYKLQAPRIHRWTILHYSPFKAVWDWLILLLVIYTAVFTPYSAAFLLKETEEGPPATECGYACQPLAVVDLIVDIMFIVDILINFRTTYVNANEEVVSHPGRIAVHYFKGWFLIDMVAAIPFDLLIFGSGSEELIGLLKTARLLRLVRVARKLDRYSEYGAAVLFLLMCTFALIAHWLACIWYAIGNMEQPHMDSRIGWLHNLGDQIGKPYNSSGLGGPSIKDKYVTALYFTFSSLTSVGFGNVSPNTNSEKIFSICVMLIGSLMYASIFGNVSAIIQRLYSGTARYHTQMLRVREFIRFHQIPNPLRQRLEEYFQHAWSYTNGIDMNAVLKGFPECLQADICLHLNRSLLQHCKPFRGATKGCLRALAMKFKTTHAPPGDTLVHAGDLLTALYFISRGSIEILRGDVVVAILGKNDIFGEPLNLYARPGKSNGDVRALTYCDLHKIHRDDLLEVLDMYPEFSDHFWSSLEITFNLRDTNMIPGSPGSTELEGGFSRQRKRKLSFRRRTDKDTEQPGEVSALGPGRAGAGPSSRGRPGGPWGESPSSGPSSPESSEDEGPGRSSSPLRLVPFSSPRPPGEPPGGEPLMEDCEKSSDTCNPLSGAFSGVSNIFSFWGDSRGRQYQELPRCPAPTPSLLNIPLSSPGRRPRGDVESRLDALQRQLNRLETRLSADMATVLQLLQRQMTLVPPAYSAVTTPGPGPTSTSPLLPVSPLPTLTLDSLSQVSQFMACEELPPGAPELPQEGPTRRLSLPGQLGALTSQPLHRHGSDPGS

This experiment addresses human ether-à-go-go-related gene (hERG) potassium channel (human, UniProt Q12809). Description: primary screen, population patch clamp on CHO cells stably expressing hERG.
With `O=C(c1cc(-c2ccccn2)nc2ccc(Cl)cc12)N1CCN(CCc2ccccc2)CC1`, the “hERG current change (%, negative = inhibition) at 10uM” value turned out to be 6.73%.
Then `CCN=C(Nc1ccc2c(c1)OCO2)SC1CC(=O)N(c2ccccc2F)C1=O` (stereo not drawn), with -14.8%; and `O=C(CCC(=O)N1CCCCC1)Nc1nnc(C2CCCCC2)s1`, with 9.81%; and `COCCNC(=O)C(c1ccco1)N(C(=O)Cn1nnc2ccccc21)c1cccc(C)c1C` (stereo not drawn), with -1.46%.
For `O=C(NNC(=O)c1cc(-c2ccc(Cl)cc2)nc2ccccc12)c1csc(N2CCOCC2)n1`, the “hERG current change (%, negative = inhibition) at 10uM” value was -22.9%.
With `O=C(Cc1ccccc1Cl)NC1(O)C(=O)c2ccccc2C1=O`, the “hERG current change (%, negative = inhibition) at 10uM” value came out at 12.5%.
For the compound `NC(=O)C[C@@H]1NC(=O)CNC(=O)c2cc([N+](=O)[O-])cc(I)c2NCCC(C(N)=O)NC1=O` (stereo partly drawn), the “hERG current change (%, negative = inhibition) at 10uM” value is on record as 5.47%.
In the case of `O=[N+]([O-])c1ccc2c(c1)C(O)n1nc(-c3ccc(Cl)cc3Cl)nc1S2` (stereo not drawn), the “hERG current change (%, negative = inhibition) at 10uM” value came to 17.4%.
Take `CC(=O)Nc1ccc(CN2CCN(CCC(C)C)C(CCO)C2)cc1` (stereo not drawn): the “hERG current change (%, negative = inhibition) at 10uM” value is listed as 19.7%.
The result for `Cc1cccc(OCc2n[nH]c(=S)n2C2CCCCC2)c1` reads 12%; that for `Cc1ccc2cc(CCNC(=O)CCCc3ccccc3)c(=O)[nH]c2c1C`, 4.88%; that for `Cc1ccc(S(=O)(=O)N(Cc2cc3ccccc3[nH]c2=O)c2cccc(C)c2)cc1`, 7.79%.
For the compound `NS(=O)(=O)c1ccc(CNS(=O)(=O)c2ccc(Cl)nc2)cc1`, the “hERG current change (%, negative = inhibition) at 10uM” value is reported as 13.6%.
The result for `O=C(CS(=O)(=O)c1ccc2ccccc2c1)Nc1ccccc1Cl` reads 5.27%.
The result for `O=C(c1ccc(F)c(S(=O)(=O)N2CCOCC2)c1)N1CCc2ccccc21` reads -21.2%.
As to `Cn1c(CN2CCCCC2)nc2cc(NC(=O)c3ccccc3Cl)ccc21`, the “hERG current change (%, negative = inhibition) at 10uM” value is reported as -8.74%.
Take `CCn1c(=N)n(CC(O)COc2cccc(C)c2)c2ccccc21.Cl` (stereo not drawn): the “hERG current change (%, negative = inhibition) at 10uM” value was -58.6%.
`Cc1cc(C(=O)N2CCc3ccccc32)n(-c2ccccc2)n1`: the “hERG current change (%, negative = inhibition) at 10uM” value is -3.22%.
Take `CN(Cc1ccccc1NCC(=O)Nc1ccccc1C#N)C1CCCCC1`: the “hERG current change (%, negative = inhibition) at 10uM” value was -33%.
For the compound `COC(=O)c1ccc(S(=O)(=O)N2CCC(O)CC2)n1C`, the “hERG current change (%, negative = inhibition) at 10uM” value was 9.79%.
The result for `Cc1ccc(CNc2oc(-c3ccco3)nc2S(=O)(=O)c2ccccc2)cc1` reads -14.3%.
For `Cc1noc(C)c1C(=O)N1CCN(c2ccccc2O)CC1`, the “hERG current change (%, negative = inhibition) at 10uM” value worked out at 22.4%.
Turning to `CCN(CC)S(=O)(=O)c1cccc(C(=O)N[C@H](C(=O)NCc2ccccc2F)C(C)C)c1`, the “hERG current change (%, negative = inhibition) at 10uM” value is -7.93%.
As for `CCN(CC)C(=O)c1ccc(C(=O)Nc2ccc(F)cc2)cc1`, the “hERG current change (%, negative = inhibition) at 10uM” value is -8.59%.
Take `O=C(NCc1ccc(Cl)cc1)c1n[nH]c([N+](=O)[O-])c1Cl`: the “hERG current change (%, negative = inhibition) at 10uM” value is recorded as -14.8%.
Then `CCc1ccc(Oc2coc3cc(O)ccc3c2=O)cc1`, with 3.61%.
Turning to `CC(NC(=O)c1cccs1)c1nnc(SCc2ccc(Cl)cc2Cl)n1C` (stereo not drawn), the “hERG current change (%, negative = inhibition) at 10uM” value is given as -24.8%.
On to `Cc1ccc(N(C(=O)C2CCC(=O)N2)C2(C(=O)NC3CCCCC3)CCCCC2)cc1` (stereo not drawn), for which the “hERG current change (%, negative = inhibition) at 10uM” value is on record as -0.0893%.
Then `CC(C)c1ccc(NS(=O)(=O)c2ccc3c(c2)NC(=O)CO3)cc1`, with 13.3%; and `O=C1C(=O)c2cccc3cccc1c23`, with 11.9%.
Consider `COc1ccc(OC)c(C2C(C(C)=O)=C(O)C(=O)N2c2ccc(O)cc2)c1` (stereo not drawn), for which the “hERG current change (%, negative = inhibition) at 10uM” value is given as 13.3%.
Then `NC(=O)C1(N2CCCCC2)CCN(Cc2ccc(F)cc2)CC1`, with -6.92%; and `O=C1CCN1C1(C(=O)NC2CCCCC2)CCCC1`, with 8.6%; and `CC(=O)c1c(N2CCN(c3cccc(Cl)c3)CC2)nc(=S)n(-c2ccccc2)c1C`, with -68.8%.
The result for `COc1ccc(Cn2c(=S)[nH]c3cc(C(=O)NCc4cccnc4)ccc3c2=O)cc1` reads 12.3%; that for `CC(C)(C)NC(=S)N/N=C\c1ccc(-c2ccc([N+](=O)[O-])cc2)o1`, 2.48%; that for `Cc1ccc(CN2CCN(/N=C/c3ccc(C)s3)CC2)cc1`, -39.9%.
Take `COc1cccc(/C=N/Nc2ccc(Cl)nn2)c1OC`: the “hERG current change (%, negative = inhibition) at 10uM” value turned out to be 15.6%.
With `Cc1ccc(S(=O)(=O)N2[C@@H](c3cccc(Cl)c3)C(C(=O)O)=CC[C@H]2c2cccc(Cl)c2)cc1`, the “hERG current change (%, negative = inhibition) at 10uM” value worked out at 3.05%.
Then `COc1cc([N+](=O)[O-])c2ncsc2c1`, with 19.3%; and `Cc1ccccc1OCCC(=O)Nc1ccccc1C(=O)NC1CC1`, with 10.2%.
Then `CC(NC(=O)C1(S(=O)(=O)c2ccc(Cl)cc2)CC1)c1ccccc1` (stereo not drawn), with -17%; and `COc1ccc(C(=O)Nc2ccccc2N2CCOCC2)cc1Br`, with -30.6%; and `CCN(CC)C(=O)c1ccc2c(=O)n(Cc3ccc4c(c3)OCO4)c(=S)[nH]c2c1`, with 8.29%.
Then `Cc1nnc(SCC(=O)Nc2ccc(N3CCOCC3)cc2)n1-c1ccccc1`, with -14.5%.
Consider `CCn1c(SC(=O)NC2CCCCC2)nnc1-c1cccs1`, for which the “hERG current change (%, negative = inhibition) at 10uM” value is recorded as -1.02%.
On to `O=C(NC1CCCC1)C1CCCN(S(=O)(=O)c2ccc(F)cc2)C1` (stereo not drawn), for which the “hERG current change (%, negative = inhibition) at 10uM” value is given as 16.2%.
As to `O=C1OC(CCl)CN1Cc1c(Cl)cccc1Cl` (stereo not drawn), the “hERG current change (%, negative = inhibition) at 10uM” value is listed as -0.492%.
As to `N#C[C@@H]1[C@@H]2C(=O)N(c3ccc4c(c3)OCCO4)C(=O)[C@@H]2C2c3ccccc3C=CN21` (stereo partly drawn), the “hERG current change (%, negative = inhibition) at 10uM” value was -4.52%.
For `FC(F)(F)c1cc(N2CCN(Cc3ccccc3)CC2)c2ccccc2n1`, the “hERG current change (%, negative = inhibition) at 10uM” value was found to be 10.9%.
As for `CCOC(=O)c1c(NC(=O)C2C3C=CC(C3)C2C(=O)O)sc2c1CCCC2` (stereo not drawn), the “hERG current change (%, negative = inhibition) at 10uM” value was 19.1%.
Turning to `CCCOc1cccc(-c2cc(C(=O)NN)c3ccccc3n2)c1`, the “hERG current change (%, negative = inhibition) at 10uM” value is recorded as -36.1%.
Then `COc1ccc(CNCC2COc3ccccc3O2)cc1.O=C(O)C(=O)O` (stereo not drawn), with -17.8%.
Then `Cc1ccc(NC(=O)c2cc(-c3ccc(C)o3)nc3ccccc23)nc1`, with 2.33%; and `Cc1ccc(/C=N\NC(=O)COc2ccc(C)cc2[N+](=O)[O-])cc1`, with -9.9%.
The result for `CCOC(=O)C1CCN(C(=O)COc2ccc(N(C)S(=O)(=O)c3ccc(OCC)cc3)cc2)CC1` reads -4.08%.
As for `NCCCNC(=O)Cn1c(=O)c2c3c(sc2n(Cc2ccccc2)c1=O)CCCC3`, the “hERG current change (%, negative = inhibition) at 10uM” value turned out to be 15.1%.
Turning to `Cc1ccc(NC(=O)C2CC(=O)N/C(=N/N=C/c3ccco3)S2)cc1C` (stereo not drawn), the “hERG current change (%, negative = inhibition) at 10uM” value was -6.98%.
With `CCOC(=O)C1CCCCN1C(=O)CCc1c(C)nc2cc(-c3ccccc3)nn2c1C` (stereo not drawn), the “hERG current change (%, negative = inhibition) at 10uM” value is listed as -64.4%.
Take `O=C(Nc1cccc(Cl)c1)Nc1cc(S(=O)(=O)N2CCOCC2)ccc1N1CCCC1`: the “hERG current change (%, negative = inhibition) at 10uM” value was -38.9%.
The result for `COc1ccccc1NC(=O)NC1(C(=O)NCC2CCCO2)CCCCC1` (stereo not drawn) reads 15.7%.
Take `CC1(C)CCC(=O)N2CC[C@H]3C[C@H](OC(=O)Nc4ccc(Br)cc4)C[C@@H]1[C@H]32`: the “hERG current change (%, negative = inhibition) at 10uM” value amounted to 4.11%.
Take `O=C(CN1C(=O)COc2ccccc2C1=O)c1ccc2c(c1)OCCO2`: the “hERG current change (%, negative = inhibition) at 10uM” value worked out at 15.6%.
As to `Oc1ccc(-c2cc(-c3ccc(O)cc3)nc(-c3ccccc3)n2)cc1`, the “hERG current change (%, negative = inhibition) at 10uM” value is given as 20.1%.
The result for `COc1ccccc1NC(=O)c1ccc(N2CC3CC(C2)c2cccc(=O)n2C3)c(NC(=O)c2cccnc2)c1` (stereo not drawn) reads 6.33%; that for `COc1ccc(NC2=C3CCCC=C3N(c3ccc(OC)cc3)C2=O)cc1`, 15.3%.
On to `COc1ccc(-c2nc(CSCC(=O)N3CCN(C)CC3)c(C)o2)cc1OC`, for which the “hERG current change (%, negative = inhibition) at 10uM” value worked out at 11.7%.
The result for `COc1ccccc1C1C(C(N)=O)=C(C)Nc2nc(-c3ccc(Cl)cc3)nn21` (stereo not drawn) reads -10.4%; that for `COc1ccc(S(=O)(=O)N2CCN(C(=O)CN3C(=O)NC4(CCCC4)C3=O)CC2)cc1`, 13.9%; that for `N/C(=N\OC(=O)c1ccco1)c1ccc(Cl)cc1`, 15.3%.
On to `COc1cc(C)c(C(=O)Oc2cc(C)c(C(=O)O)c(O)c2C)c(O)c1C`, for which the “hERG current change (%, negative = inhibition) at 10uM” value is -0.636%.
With `Cn1c(CCC(=O)Nc2ccccc2F)nnc1SCC(=O)Nc1ccccc1Cl`, the “hERG current change (%, negative = inhibition) at 10uM” value is reported as 0.612%.
Then `O=C(Nc1cc(C(F)(F)F)ccc1F)C1CCC1`, with -5.16%.
Regarding `Cn1cc(-c2nnnn2-c2ccccc2)c(=O)c2ccccc21`, the “hERG current change (%, negative = inhibition) at 10uM” value is reported as -8.94%.
The result for `O=c1c2c(nc3cc(-c4cccc(Cl)c4)[nH]n13)CCCC2` reads 8.99%; that for `CN(c1ccc(OCC(=O)N2CCN(c3ccc(F)cc3)CC2)cc1)S(=O)(=O)c1cccs1`, -58.7%; that for `O=C(Nc1cccc(S(=O)(=O)N2CCOCC2)c1)c1cn(-c2ccccc2)nc1-c1ccccc1`, -5.73%.
`O=C(N/N=C/c1cccnc1)C1CC1(c1ccccc1)c1ccccc1` (stereo not drawn): the “hERG current change (%, negative = inhibition) at 10uM” value is reported as -55.6%.
Then `COc1ccc2c(=O)c(-c3cnn(-c4ccccc4)c3)c(C)oc2c1`, with 0.374%.
Then `COc1ccc(CCNC(=O)c2cc(-c3cc(Cl)cc(Cl)c3)oc2C)cc1`, with -9.71%; and `C=CCNC(=O)c1ccc(C2SCC(=O)N2Cc2ccccc2)cc1` (stereo not drawn), with 6.11%; and `Cc1cc(N2CCOCC2)nc2ccc(NC(=S)NCCC(C)C)cc12`, with -64.1%.
The result for `O=C(O)c1ccc(/C=N/Nc2ncc(Cl)cc2Cl)cc1` reads 18%.
As to `CCOc1ccc(C(CC(=O)O)NC(=O)COc2ccccc2)cc1OC` (stereo not drawn), the “hERG current change (%, negative = inhibition) at 10uM” value came to 13.2%.

The values above are taken from PMC4336329 (PLoS ONE, 2015).
